From patent US20200196599A1 (priority 2018, published 2020)
Where two headings read alike, the source gives them in different places.

Legend:
Arabidopsis seedlings = conditions: in vivo
PIN2:GFP localization = assay: PIN2:GFP cellular localization (PVC compartments) in root epidermal cells; type: cell-based, Arabidopsis
Excerpt: To quantify the intracellular localized PIN2 after ES2 and analog 14 treatment, Z-stack images from treated cells were thresholded and the cell outline was drawn using polygon selection tool in ImageJ. The intracellular pre-vacuolar compartments that contain PIN2:GFP were quantified using Analyze Particle tool in selected cells using imageJ. The compartments that are less than 0.1 μm^2 were considered as background and were discarded. A total of 8 images from about 90 cells were quantified for each drug treatment.

BSA = BSA (Bos taurus, UniProt P02769); assay: DARTS assay, BSA internal control; type: binding; conditions: 400 μM compound, BSA mixed with EXO70 protein
rExo70 in Hela cells = assay: Localization of GFP-rExo70 in Hela cells; type: cell-based; conditions: 40 μM, 4 hours
Excerpt: ES2 is active in targeting mammalian EXO70s and it can inhibit the recycling of transferrin and localization of rExo70 to the plasma membrane (Zhang et al., 2016). Because analog 14 interacts with AtEXO70A1, we then assayed whether it could be used as an exocytosis inhibitor in mammalian cells by testing its effects on the localization of GFP-rExo70 in Hela cells. […] Therefore, minor changes in ES2 structure could affect its specificity in targeting EXO70s in different organisms.
The cells were treated with 40 μM ES2 or analog 14 for 4 hours and the localization of rEXO70 and Rab8 was detected using Leica DMI6000 microscope.

MoEXO70 = type: binding, M. oryzae; conditions: 400 μM compound, pronase 1:3000 and 1:10000 dilutions
BcEXO70 = type: binding, B. cinerea
GFP-BcEXO70 = GFP-BcEXO70 (Botrytis cinerea, UniProt A0A384JDU6); assay: biochemical; type: binding, B. cinerea
SUMO-GFP = assay: MST negative control with SUMO-GFP; type: binding
M. oryzae [1] = type: cell-based, Magnaporthe oryzae
M. oryzae [2] = type: in vivo, Magnaporthe oryzae; conditions: 80 μM in spore suspension, 6 days post-inoculation
B. cinerea [3] = type: in vivo, Botrytis cinerea; conditions: 80 μM in spore suspension, versus DMSO control
[4] = tested on: PIN2:GFP exocytic trafficking from BFA compartments; assay: BFA washout: recovery of PIN2:GFP from BFA-induced compartments; conditions: 40 μM BFA 60 min, then 80 minutes of recovery with 40 μM compound
[5] = tested on: HDEL, GOP1p, VHA-a1, ROP6, PIP2a and PGP4; type: cell-based, Arabidopsis
M. oryzae [6] = type: cell-based, Magnaporthe oryzae; conditions: CM medium, 12 days
B. cinerea [7] = type: cell-based, Botrytis cinerea
AtEXO70A1 = biological target: T1, AtEXO70A1 (Arabidopsis thaliana, UniProt Q9LZD3); conditions: read-out: Kd with AtEXO70A1 (MST); NT-647-labeled AtEXO70A1, 50 nM protein
T1 sequence (Q9LZD3 75-638 limits assumed): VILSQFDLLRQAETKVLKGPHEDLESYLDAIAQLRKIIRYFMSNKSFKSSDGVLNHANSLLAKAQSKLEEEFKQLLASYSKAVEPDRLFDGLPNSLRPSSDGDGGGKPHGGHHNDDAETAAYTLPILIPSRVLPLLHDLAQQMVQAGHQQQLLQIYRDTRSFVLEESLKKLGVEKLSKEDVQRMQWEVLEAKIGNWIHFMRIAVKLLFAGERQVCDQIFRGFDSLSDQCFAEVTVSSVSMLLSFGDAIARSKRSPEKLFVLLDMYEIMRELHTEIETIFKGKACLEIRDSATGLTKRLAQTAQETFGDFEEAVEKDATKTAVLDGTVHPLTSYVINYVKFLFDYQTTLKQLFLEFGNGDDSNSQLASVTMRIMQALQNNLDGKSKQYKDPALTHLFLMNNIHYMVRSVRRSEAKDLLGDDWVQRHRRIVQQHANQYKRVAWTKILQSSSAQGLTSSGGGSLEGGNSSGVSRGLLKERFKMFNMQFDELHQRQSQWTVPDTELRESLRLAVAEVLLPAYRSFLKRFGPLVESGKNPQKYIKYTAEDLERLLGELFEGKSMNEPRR

plant growth = assay: Plant growth inhibition by Cellulosin and isoxaben; type: in vivo; conditions: 3.5 nM isoxaben alone
[8] = different concentrations, 24 hours of incubation

SMILES | growth / root length of Arabidopsis seedlings versus DMSO (Arabidopsis seedlings) | number of PVC compartments that contain PIN2:GFP (PIN2:GFP localization; 20 μM, 2 h) | protection of BSA from degradation by pronase (BSA) | effect on cellular localization of rExo70 (rExo70 in Hela cells) | protection of MoEXO70 from degradation by pronase (MoEXO70) | protection of BcEXO70 from degradation by pronase (BcEXO70) | interaction with SUMO-GFP (MST control) (SUMO-GFP) | effect on appressorium formation (M. oryzae [1]; [8]) | lesions on rice leaves inoculated with M. oryzae spores (M. oryzae [2]) | lesions on Arabidopsis leaves inoculated with B. cinerea spores (B. cinerea [3]) | average number of BFA-induced PIN2:GFP containing compartments [4] | further results
COc1cc(/C=N/NC(=O)c2cccc(F)c2)cc(I)c1O [ES2, endosidin2, reference compound] | No obvious differences in growth | only a few PVC compartments that contained PIN2:GFP | not protected | reduced the localization of rExo70 to the plasma membrane | did not significantly protect | did not significantly protect | did not interact | limited effects | smaller lesions | did not affect the development of lesions | approximately 0.65 per cell | Kd (GFP-BcEXO70): 177 ± 170 µM; effect on appressoria formation (M. oryzae [1]; 80 μM): only slightly inhibited
O=C(N/N=C/c1cc(I)c(O)c(I)c1)c1cccc(F)c1 [analog 14] | significantly shorter roots | significantly increased the number of PVC compartments | but not BSA | did not affect cellular localization of rExo70 | protected | protected | did not interact | inhibitory to appressorium formation | only limited necrosis | significantly reduced the lesion size | about 1 per cell | growth inhibition potency compared with ES2 (root length statistics) (Arabidopsis seedlings): more potent growth inhibitor than ES2; root elongation of Arabidopsis seedlings (Arabidopsis seedlings): failed to elongate at all; seedling size and root length versus same concentration of ES2 (Arabidopsis seedlings): significantly smaller and had shorter roots; number of PVC compartments that contain PIN2:GFP (PIN2:GFP localization; 40 μM, 2 h or longer): further increased PVC with GFP fluorescence; effect on localization of fluorescence-tagged organelle markers [5]: no obvious effects; concentration causing significant reduction in growth of M. oryzae (M. oryzae [6]): 10 µM; concentration that significantly inhibited the growth rate of B. cinerea (B. cinerea [7]): ≥ 10 µM; Kd (GFP-BcEXO70; read-out: calculated Kd with GFP-BcEXO70 (MST), 50 nM protein): 6 ± 14 µM; effect on appressorium formation (M. oryzae [1]; 10 μM, 24 hours): significantly reduce appressorium formation; effect on appressorium formation (M. oryzae [1]; 40 or 80 μM, 24 hours): almost completely blocked; Kd (AtEXO70A1): 255 ± 13 µM
CCC(C)(CC)c1cc(NC(=O)c2c(OC)cccc2OC)on1 [isoxaben] | – | – | – | – | – | – | – | – | – | – | – | effect on plant growth (plant growth): did not inhibit plant growth
